Measurements: PubChem BioAssay AID485294 (National Center for Advancing Translational Sciences (NCATS), 2010)
In all, about 370,000 compounds went through this assay and about 150 (0.041%) were called active. The shares of active, inactive and inconclusive entries below differ from those in the screen. Calls come from the whole dose curve; as a rule, active = well fitted inhibition curve with a large enough effect; inconclusive = small, poorly fitted or top-dose-only effect; inactive = flat fitted curve, though single readings scatter. Potencies of inconclusive entries are left out as doubtful fits.
Note: nearly all actives have a fitted effect of over 25% in size.
Potency is the fitted concentration of half-maximal effect; tags give direction and shape of the fitted curve.
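Throughout, for activity change, negative = inhibition: 0% = no-compound wells and -100% = no-enzyme wells.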

What follows are molecules tested against Beta-lactamase (Escherichia coli (strain K12)) (UniProt P00811) (assay: qHTS Inhibitors of AmpC Beta-Lactamase (assay with detergent)). Conditions: AmpC hydrolysis of nitrocefin, absorbance 480 nm, 0.01% Triton; activity change, negative = inhibition: at 114 µM (top of the series).
UniProt P00811, sequence (P00811 whole entry, looked up): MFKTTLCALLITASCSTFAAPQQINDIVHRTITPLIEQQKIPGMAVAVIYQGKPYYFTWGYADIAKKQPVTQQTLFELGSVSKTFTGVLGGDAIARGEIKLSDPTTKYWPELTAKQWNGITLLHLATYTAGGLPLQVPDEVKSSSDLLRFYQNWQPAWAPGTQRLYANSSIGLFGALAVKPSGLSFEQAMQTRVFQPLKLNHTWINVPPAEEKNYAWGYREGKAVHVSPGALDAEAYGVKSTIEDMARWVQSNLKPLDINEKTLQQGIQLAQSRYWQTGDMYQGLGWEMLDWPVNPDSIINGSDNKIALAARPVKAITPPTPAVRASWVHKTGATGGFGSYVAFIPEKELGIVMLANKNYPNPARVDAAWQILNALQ
Procedure, shortened: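 20 mM phosphate pH 7.0 + 0.01% (detergent screen) or 0.0001% Triton X-100; 5.3 nM AmpC reagent; cpd preinc 15 min RT; nitrocefin (800 uM stock) to start; A480 q20 s × 4 min; Activity was normalised to no-enzyme and no-compound control wells.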
For `O=c1[nH]c(=S)[nH]c(O)c1/C=C1/C=c2ccccc2=N1`, the Potency was inconclusive [inhibitor, full curve, poor fit]. `O=C(OCC(=O)N1CCCC1)c1cc([N+](=O)[O-])ccc1Cl` was tested, and the Potency was inconclusive [inhibitor, full curve, poor fit]. In the case of `Nc1nc(Cl)cc(N2CCC(c3cc(-c4ccc(Cl)cc4)n[nH]3)CC2)n1`, the Potency is reported as inconclusive [inhibitor, partial curve]. In the case of `Cc1noc(/C=C/N(C)C)c1S(=O)(=O)N1CCN(c2ccccc2)CC1`, the Potency is reported as inconclusive [inhibitor, full curve]. For `CC(C)C(C)NC(=O)COc1ccc([N+](=O)[O-])cc1Cl` (stereo unspecified), the Potency was inconclusive [inhibitor, partial curve, poor fit]. `CCOc1ccc(C(=O)Nc2ccc(N3CCN(C)CC3)cc2)cc1Br` was tested, and the Potency was inconclusive [inhibitor, single point]. `CCOC(=O)c1ccc([N+](=O)[O-])c(CS(=O)(=O)c2ccc(Cl)cc2)c1` was tested, and the “activity change, negative = inhibition” value was inactive: 0.204%. `COc1ccc(-c2cn3c(n2)sc2cc(C(=O)NCc4cccs4)ccc23)cc1` was tested, and the “activity change, negative = inhibition” value was inactive: 11.3%. With `CC(C)CCN(C(=O)c1ccncc1)c1c(N)n(Cc2ccccc2)c(=O)[nH]c1=O` the Potency was inconclusive [inhibitor, full curve, poor fit]. `CCOc1ccc(S(=O)(=O)N/N=C2/CC(c3ccccc3)Oc3ccccc32)cc1` (stereo unspecified) was tested, and the “activity change, negative = inhibition” value was inactive: 7.2%. With `CN(CC(=O)Nc1ccc(F)c(F)c1F)c1cnccn1` the Potency was inconclusive [inhibitor, full curve, poor fit]. In the case of `COc1ccc(-c2csc(NC(=O)c3ccccc3NS(=O)(=O)c3ccc(F)c(F)c3)n2)cc1`, the “activity change, negative = inhibition” value is reported as inactive: 0.491%. In the case of `O=C(Nc1ccc(F)cc1)N1CCN(c2ccc3nnc(-c4ccc(F)cc4)n3n2)CC1`, the Potency is reported as inconclusive [inhibitor, full curve, poor fit]. `CCCCCn1c(=O)[nH]c2cc(C(=O)N3CCN(C(=O)OCC)CC3)ccc2c1=O` was tested, and the Potency was inconclusive [inhibitor, single point]. For `CCOC(=O)c1cc(NC(=O)N2CCOCC2)c(C)nc1C`, the Potency was inconclusive [inhibitor, partial curve, poor fit]. For `Cc1ccccc1CNC(=O)c1ccccc1NC(=O)c1nsc2ccccc12`, the “activity change, negative = inhibition” value was inactive: -3.01%. `Cc1[nH]c(C)c(S(=O)(=O)Nc2cccc(Cl)c2C)c1C(=O)N1CCCC1` was tested, and the Potency was inconclusive [inhibitor, full curve, poor fit]. `CC(C)(C)c1ccc(CSc2nc3c(c(=O)[nH]2)CCCC3)cc1` was tested, and the “activity change, negative = inhibition” value was inactive: -3.67%. `Cc1noc(C)c1COc1ccc(C(=O)NCc2ccccn2)cc1` was tested, and the Potency was inconclusive [inhibitor, partial curve, poor fit]. With `COc1cc2c(cc1NC(=O)Nc1ccc(C)cc1)oc1ccccc12` the “activity change, negative = inhibition” value was inactive: -0.71%. In the case of `Cn1c(=O)c2c(nc(OCc3cccnc3)n2Cc2c(F)cccc2Cl)n(C)c1=O`, the Potency is reported as inconclusive [inhibitor, single point]. With `CCOCC(=O)Nc1ccc(S(=O)(=O)N2CCC(c3nc4ccccc4[nH]3)CC2)cc1` the “activity change, negative = inhibition” value was inactive: -2.45%. In the case of `COc1ccccc1NC(=S)N(Cc1cccnc1)Cc1ccco1`, the Potency is reported as inconclusive [inhibitor, partial curve]. In the case of `N#Cc1nc(Cc2ccccc2)oc1N1CCC(C(N)=O)CC1`, the Potency is reported as inconclusive [inhibitor, full curve, poor fit]. In the case of `NC(=O)NC(=O)CSc1nc2cc([N+](=O)[O-])ccc2n1-c1cccc(C(F)(F)F)c1`, the Potency is reported as inconclusive [inhibitor, single point]. For `NC(=O)CC[C@@H]1NC(=O)[C@@H]2CCCN2C(=O)c2cc([N+](=O)[O-])cc(I)c2NCCC[C@@H](C(=O)NC(CC(=O)O)C(N)=O)NC1=O` (stereo partly specified), the Potency was inconclusive [inhibitor, full curve, poor fit]. With `Cc1ccccc1CN1N=C(/C=C/c2ccccc2)CCC1=O` the “activity change, negative = inhibition” value was inactive: -5.94%. For `Cc1ccsc1/C=N\NC(=O)CC(=O)NCc1ccccc1`, the Potency was inconclusive [inhibitor, full curve, poor fit]. In the case of `CCOc1ccccc1NC(=O)CCSc1nc2n[nH]c(C)c2c(=N)n1-c1ccccc1Cl`, the “activity change, negative = inhibition” value is reported as inactive: -0.114%. In the case of `NC(=O)c1c(NC(=O)C2CCCO2)sc2c1CCC2` (stereo unspecified), the Potency is reported as inconclusive [inhibitor, full curve, poor fit]. For `Cc1ccnc2nc(C(=O)Nc3ccc4c(c3)OCO4)nn12`, the Potency was inconclusive [inhibitor, full curve, poor fit]. In the case of `Cc1c(C)n(Cc2ccccc2)c2ccc(C(=O)NCCCN3CCOCC3)cc12`, the Potency is reported as inconclusive [inhibitor, full curve]. `CCOc1ccc(Nc2nc(Cc3nnc(SCC(=O)O)o3)cs2)cc1` was tested, and the Potency was inconclusive [inhibitor, full curve, poor fit]. With `O=C(Nc1ccc(Cl)cc1)c1csc(-c2ccncc2)n1` the “activity change, negative = inhibition” value was inactive: 1.15%. With `O=c1c(-c2ccccc2)coc2c(CN3CCCCC3)c(O)ccc12` the Potency was inconclusive [inhibitor, full curve, poor fit]. With `CCC(C(=O)NCCN1CCN(C)CC1)n1c(C)c2cnn(-c3ccccc3)c(=O)c2c1C` (stereo unspecified) the “activity change, negative = inhibition” value was inactive: -6.18%. In the case of `COc1cccc(CN2CCN(Cc3ccc(O)c(OC)c3)CC2CCO)c1` (stereo unspecified), the “activity change, negative = inhibition” value is reported as inactive: -3.46%. With `COc1ccccc1NC(=O)C(C)OC(=O)CCNS(=O)(=O)c1ccc(C)c(C)c1` (stereo unspecified) the Potency was inconclusive [inhibitor, full curve, poor fit]. With `CCOC(=O)Cc1csc(NC(=O)c2ccc(Br)cc2)n1` the Potency was inconclusive [inhibitor, full curve, poor fit]. With `O=C(Nc1cccc(Cl)c1)N1CCN2C(=O)c3ccccc3C12c1ccccc1` (stereo unspecified) the Potency was inconclusive [inhibitor, partial curve]. For `CCc1ccc(N(C(=O)c2ccco2)C(C(=O)NC2CCCC2)c2cccnc2)cc1` (stereo unspecified), the Potency was inconclusive [inhibitor, single point]. In the case of `COc1ccc(-c2nc3scc(CCNS(=O)(=O)c4c(C)noc4C)n3n2)cc1OC`, the “activity change, negative = inhibition” value is reported as inactive: 3.22%. For `CCOC(=O)N1CCN(S(=O)(=O)c2ccc3c(c2)SC(C)C(=O)N3)CC1` (stereo unspecified), the Potency was inconclusive [inhibitor, partial curve]. For `COc1cccc(CNC(=O)c2[nH]c3cc(C)ccc3c2Sc2ccccc2)c1`, the “activity change, negative = inhibition” value was inactive: -3.55%. For `CCOC(=O)c1c(S(=O)(=O)NCC(=O)N2CCN(c3cccc(Cl)c3)CC2)c(C)n(C)c1C`, the “activity change, negative = inhibition” value was inactive: 2.55%. In the case of `COc1cccc2cc(C(=O)N(Cc3ccccc3)CC3CCCO3)c(=O)oc12` (stereo unspecified), the “activity change, negative = inhibition” value is reported as inactive: -1.72%. `Cc1ccccc1Cc1c(C)nc2nc(SCC(=O)NCCCN3CCCCC3)nn2c1C` was tested, and the Potency was inconclusive [inhibitor, full curve, poor fit]. `Cc1ccc(C2CC(c3ccccc3C)n3nc(N)nc3N2)cc1` (stereo unspecified) was tested, and the Potency was inconclusive [inhibitor, partial curve, poor fit]. `Cc1cccn2c(=O)cc(CSc3nnc(NC(=O)COc4ccc(F)cc4)s3)nc12` was tested, and the “activity change, negative = inhibition” value was inactive: 5.97%. In the case of `O=C(CCCCn1c(=O)[nH]c2ccsc2c1=O)NCc1cccnc1`, the Potency is reported as inconclusive [inhibitor, partial curve, poor fit]. With `CCCCCCCC(=O)N1CCN(c2cc3c(cc2F)c(=O)c(C(=O)O)cn3CC)CC1` the “activity change, negative = inhibition” value was inactive: -9.29%. For `O=C(/C=C/c1ccccc1)NC(=S)NNC(=O)Cc1cccs1`, the Potency was inconclusive [inhibitor, single point]. With `Cc1cccc(C(=O)NCCN2CCCC2)c1` the Potency was inconclusive [inhibitor, full curve, poor fit]. With `Cc1ccccc1CNC(=O)COc1ccccc1` the Potency was inconclusive [inhibitor, full curve, poor fit]. In the case of `Cc1ccc2nc(NC(=O)CSc3nncc(=O)n3N)sc2c1`, the “activity change, negative = inhibition” value is reported as inactive: -5.65%. With `COC(=O)c1ccccc1NC(=O)CN1CCC(n2nnc3cc(C)ccc32)CC1` the Potency was inconclusive [inhibitor, full curve, poor fit]. With `O=C(C1CC(c2ccc(F)cc2)=NO1)N1CCCc2ccccc21` (stereo unspecified) the Potency was inconclusive [inhibitor, single point]. `COC(=O)Nc1ccc(S(=O)(=O)N2CCCCC2C(=O)O)cc1` (stereo unspecified) was tested, and the Potency was inconclusive [inhibitor, full curve]. `Cc1ccc(-c2nc(SCC(=O)Nc3ccccc3OC(F)F)c3c(C)c(C(=O)O)sc3n2)cc1` was tested, and the Potency was inconclusive [inhibitor, partial curve, poor fit]. In the case of `N#Cc1nc(COc2ccccc2)oc1N1CCOCC1`, the Potency is reported as inconclusive [inhibitor, single point]. In the case of `O=C(CCN1CCN(Cc2ccccc2)CC1)NNC(=O)Cc1ccc(Cl)c(Cl)c1`, the Potency is reported as inconclusive [inhibitor, single point]. With `CC1(C)NC(=O)N(CCOc2ccc3c(c2)CCC3)C1=O` the Potency was inconclusive [inhibitor, partial curve]. With `CCOC(=O)C1=C(C)OC(N)=C(C#N)C1c1cc2cc(C)ccc2nc1N1CCCCC1` (stereo unspecified) the “activity change, negative = inhibition” value was inactive: -9.78%. With `CCCn1c2c(c(O)c(C(=O)Nc3ccccn3)c1=O)CCCC2` the Potency was inconclusive [inhibitor, full curve, poor fit]. With `Cc1ccc(C(=O)NN2C(=O)C3C4c5ccccc5C(c5ccccc54)C3C2=O)cc1` (stereo unspecified) the Potency was inconclusive [inhibitor, partial curve]. In the case of `O=C(NCC(=O)N1CCCC(C(F)(F)F)C1)c1ccco1` (stereo unspecified), the “activity change, negative = inhibition” value is reported as inactive: -1.2%.
